The values that follow come from US9505824B2, “Antigen peptide derived from the sequence of epidermal growth factor receptor having T790M point mutation” (Kanagawa Prefectural Hospital Organization, priority 2012, dated 2016).

Data set [1] concerns NCI-H1975 (HLA-A2− T790M+).
The test system of data set [2] is NCI-H1975-A2 (HLA-A2+ T790M+).
The subject of data set [3] is NCI-H1975 (HLA-A2− T790M+). In words: Calcein cytotoxicity assay of T790M-A-specific CTL line. It counts as cell-based. Particulars: Calcein labeling; HLA-A2-negative cells. Here is the method: (§1) FIG. 11. Reactivity of T790M-A-specific CTL line against NSCLC cell lines having the EGFR T790M mutation (3).
(§2) Cytotoxicity of peptide-specific CTLs was examined by an assay with Calcein labeling. Target cells (NCI-H1975 or NCI-H1975-A2) were labeled with Calcein AM (Dojindo, Kumamoto, Japan). The target cells (1×10^4 cells) were co-cultured with effector cells at the following effector/target ratio for 4-6 hours in 96-well half plate (Corning, N.Y., USA). Cytotoxicity was determined with Terascan VPC system (Minerva Tech). The effector/target ratio was 3:1 or 10:1.

The subject of data set [4] is NCI-H1975-A2 (HLA-A2+ T790M+). The description is as above. The class given is cell-based. To be noted: Calcein labeling. Here is the method: as §1, §2

No end group written: not given here.

As to `CC[C@H](C)[C@H](NC(=O)[C@@H](N)CC(C)C)C(=O)N[C@@H](CCSC)C(=O)N[C@@H](CCC(N)=O)C(=O)N[C@@H](CC(C)C)C(=O)N[C@@H](CCSC)C(=O)N1CCC[C@H]1C(=O)N[C@@H](Cc1ccccc1)C(=O)NCC(=O)N[C@@H](CS)C(=O)N[C@@H](CC(C)C)C(=O)O` [Peptide T790M-7, LIMQLMPFGCL], the “cytotoxicity of peptide-stimulated PBMCs against NCI-H1975” value in data set [1] is on record as “not against HLA-A2-negative NCI-H1975 cells”. In data set [2], the “cytotoxicity of peptide-stimulated PBMCs against NCI-H1975-A2” value was “substantial cytotoxicity”.

Take IMQLMPFGC [Peptide T790M-A, IMQLMPFGC]: in data set [3], the “cytotoxicity of T790M-A-specific CTL line against NCI-H1975” value was “not against HLA-A2-negative NCI-H1975 cells”. The “cytotoxicity of T790M-A-specific CTL line against NCI-H1975-A2” value in data set [4] is listed as “showed cytotoxicity against NCI-H1975-A2”.

Take `CSCC[C@H](NC(=O)[C@H](CC(C)C)NC(=O)[C@H](CCC(N)=O)NC(=O)[C@@H](N)CCSC)C(=O)N1CCC[C@H]1C(=O)N[C@@H](Cc1ccccc1)C(=O)NCC(=O)N[C@@H](CS)C(=O)N[C@@H](CC(C)C)C(=O)N[C@@H](CC(C)C)C(=O)O` [Peptide T790M-5, MQLMPFGCLL]: the “cytotoxicity of peptide-stimulated PBMCs against NCI-H1975” value in data set [1] was “not against HLA-A2-negative NCI-H1975 cells”. For the same compound, the “cytotoxicity of peptide-stimulated PBMCs against NCI-H1975-A2” value in data set [2] was “substantial cytotoxicity”.
